From patent US20250179210A1, “ANTI-CEACAM5 ANTIBODIES AND CONJUGATES AND USES THEREOF” (Merck Patent GmbH, priority 2022, published 2025)

T1: CEACAM5 in cancer cell line lysates (Homo sapiens, UniProt P06731)
T1 construct: endogenous in cells; host or cells: CEACAM5-positive and -negative cancer cell lines (RIPA lysates)
T1 sequence (P06731 35-685): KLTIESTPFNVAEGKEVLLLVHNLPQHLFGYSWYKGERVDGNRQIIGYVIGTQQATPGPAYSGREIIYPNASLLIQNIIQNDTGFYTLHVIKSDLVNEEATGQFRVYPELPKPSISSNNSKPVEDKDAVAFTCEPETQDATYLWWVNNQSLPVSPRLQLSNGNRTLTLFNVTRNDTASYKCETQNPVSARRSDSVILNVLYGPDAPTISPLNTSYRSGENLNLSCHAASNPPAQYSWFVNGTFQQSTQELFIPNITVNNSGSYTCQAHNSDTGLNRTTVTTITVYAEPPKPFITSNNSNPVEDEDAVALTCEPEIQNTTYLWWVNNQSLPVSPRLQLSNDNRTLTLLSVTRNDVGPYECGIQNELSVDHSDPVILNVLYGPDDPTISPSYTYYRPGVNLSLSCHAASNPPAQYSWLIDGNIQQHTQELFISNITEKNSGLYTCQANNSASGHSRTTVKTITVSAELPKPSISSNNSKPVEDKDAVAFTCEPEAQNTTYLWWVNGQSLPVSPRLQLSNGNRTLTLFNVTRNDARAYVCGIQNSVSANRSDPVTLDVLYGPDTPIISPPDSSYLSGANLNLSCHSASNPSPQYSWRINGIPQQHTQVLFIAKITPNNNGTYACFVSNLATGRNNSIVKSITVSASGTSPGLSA

B1: mAb1: anti-CEACAM5 antibody; two heavy chains SEQ ID NO: 13 and two light chains SEQ ID NO: 14 (antibody)
heavy: EVQLQESGPGLVKPSQTLSLTCTVSDGSVSRGGYYLTWIRQHPGKGLEWIGYIYYSGSTYFNPSLRSRVTMSVDTSKNQFSLKLSSVTAADTAVYYCARGIAVAPFDYWGQGTLVTVSSASTKGPSVFPLAPSSKSTSGGTAALGCLVKDYFPEPVTVSWNSGALTSGVHTFPAVLQSSGLYSLSSVVTVPSSSLGTQTYICNVNHKPSNTKVDKRVEPKSCDKTHTCPPCPAPPVAGPSVFLFPPKPKDTLMISRTPEVTCVVVDVSHEDPEVKFNWYVDGVEVHNAKTKPREEQYNSTYRVVSVLTVLHQDWLNGKEYKCKVSNKALPSSIEKTISKAKGQPREPQVYTLPPSREEMTKNQVSLTCLVKGFYPSDIAVEWESNGQPENNYKTTPPVLDSDGSFFLYSKLTVDKSRWQQGNVFSCSVMHEALHNHYTQKSLSLSPG
light: EIVLTQSPATLSVSPGERATLSCRTSQSVRSNLAWYQQKPGQAPRLLIYAASTRATGIPARFSGSGSGTEFTLTISSLQSEDFAVYYCQQYTNWPFTFGPGTKVDIKRTVAAPSVFIFPPSDEQLKSGTASVVCLLNNFYPREAKVQWKVDNALQSGNSQESVTEQDSKDSTYSLSSTLTLSKADYEKHKVYACEVTHQGLSSPVTKSFNRGEC
B2: ADC1 (conjugate)
heavy: EVQLQESGPGLVKPSQTLSLTCTVSDGSVSRGGYYLTWIRQHPGKGLEWIGYIYYSGSTYFNPSLRSRVTMSVDTSKNQFSLKLSSVTAADTAVYYCARGIAVAPFDYWGQGTLVTVSSASTKGPSVFPLAPSSKSTSGGTAALGCLVKDYFPEPVTVSWNSGALTSGVHTFPAVLQSSGLYSLSSVVTVPSSSLGTQTYICNVNHKPSNTKVDKRVEPKSCDKTHTCPPCPAPPVAGPSVFLFPPKPKDTLMISRTPEVTCVVVDVSHEDPEVKFNWYVDGVEVHNAKTKPREEQYNSTYRVVSVLTVLHQDWLNGKEYKCKVSNKALPSSIEKTISKAKGQPREPQVYTLPPSREEMTKNQVSLTCLVKGFYPSDIAVEWESNGQPENNYKTTPPVLDSDGSFFLYSKLTVDKSRWQQGNVFSCSVMHEALHNHYTQKSLSLSPG
light: EIVLTQSPATLSVSPGERATLSCRTSQSVRSNLAWYQQKPGQAPRLLIYAASTRATGIPARFSGSGSGTEFTLTISSLQSEDFAVYYCQQYTNWPFTFGPGTKVDIKRTVAAPSVFIFPPSDEQLKSGTASVVCLLNNFYPREAKVQWKVDNALQSGNSQESVTEQDSKDSTYSLSSTLTLSKADYEKHKVYACEVTHQGLSSPVTKSFNRGEC

Columns and labels:
[1] = test system: mfCEACAM5-expressing CHO cell line; experiment: Cellular binding (titration, fluorescence MFI); set-up: species or system Macaca fascicularis; conditions: exemplary data
Description: The antibody's ability to bind its target protein on cells was determined by titrating the antibody on cells that express the target (e.g. human CEACAM5) and measuring the fluorescence MFI of the cells. Model cells for antibody binding comparison were the MKN45 cell line expressing human CEACAM5 as well as a CHO cell line expressing mfCEACAM5. Titration was done with 10-point ×4 dilution, curve starting concentration 2000 nM in assay buffer (PBS×1 containing 1% BSA).

[2] = test system: FcγRI, FcγRIIa, FcγRIIIa, FcγRIIIa/complex, C1q, FcγRIIb and FcγRIIIb; experiment: Binding to Fc effector molecules; conditions: compared to the parent clone
[3] = target: T1, CEACAM5 in cancer cell line lysates; experiment: Western blot on cancer cell line lysates; assay type: binding; conditions: CEACAM5-positive and -negative cell line lysates
Description: Method used: Western blots were performed according to standard protocols (Sambrook, J. & Russell, D. W., 2001. Molecular Cloning: A Laboratory Manual, Volume 1, CSHL Press). For SDS-PAGE followed by membrane wet blotting, 15 μg total protein of RIPA cell lysates quantified by BCA kit (Thermo Scientific, #23227) were loaded per lane. Criterion XT 4-12% gels (Bio-Rad, #3450125) using MOPS running buffer (Bio-Rad #1610788) were used in a Criterion electrophoresis cell (Bio-Rad, #1656001). Transfer of proteins was confirmed by Ponceau staining. Membranes were washed before and in-between staining with 0.5 μg/mL to 1 μg/mL primary (mAb1 or rb8G4) and secondary antibodies (anti-human IgG, Jackson ImmunoResearch #109-035-098 or anti-rabbit IgG, CellSignaling #7074) was conducted. Stained membranes were visualized by ECL detection reagent using a Fusion FX imaging system (Vilber).

[4] = test system: SNU-16; experiment: Viability assay (Cell Titer-Glo); assay type: cell-based, human; conditions: Table 2; at the highest tested compound concentration
[5] = test system: MDA-MB-468; experiment: Viability assay (Cell Titer-Glo); assay type: cell-based, human; conditions: Table 2
[6] = 30-min i.v. infusion on day 1, 22 and 43 at 3, 10, and 30 mg/kg
[7] = test system: human patient-derived gastric cancer xenograft model GAX066; experiment: Gastric cancer PDX mouse model GAX066; assay type: in vivo; conditions: single i.v. treatment
Description: Anti-tumor efficacy in vivo was evaluated in the human patient-derived gastric cancer xenograft model GAX066 (Shanghai ChemPartner Co., Ltd). Tumor fragments were transplanted subcutaneously into the right flank of immunodeficient female mice (Nu/Nu mice, Beijing Vital River Lab Animal Technology Co. Ltd, 18-22 g). […] Tumor length (L) and width (W) were measured with calipers and tumor volumes were calculated using the formula L×(W^2)/2.

[8] = test system: human patient-derived CRC xenograft model COPF230; experiment: CRC PDX mouse model COPF230; assay type: in vivo; conditions: single i.v. treatment, 6 mg/kg
Description: (§1) Anti-tumor efficacy in vivo was evaluated in the human patient-derived CRC xenograft models COPF230 and REPF210 (Shanghai LideBiotech CO., LTD). Tumor fragments were transplanted subcutaneously into the right flank of six to eight weeks old immunodeficient female mice (NU-Foxn1nu, Charles River). […] Tumor length (L) and width (W) were measured with calipers and tumor volumes were calculated using the formula L×(W^2)/2.
Anti-tumor efficacy of ADC1-M and ADC3-M in comparison to ADC SAR DM4 was in the human CRC xenograft model COPF230. The study was performed at Lide Biotech (Shanghai). Six to eight weeks old immunodeficient female mice (Crl: NU-Foxn1nu) were transplanted subcutaneously in the right flank with COPF230 tumor fragments. When tumors reached a mean volume of 165 mm^3 6 mice/group were treated once intravenously with vehicle (saline solution) or with ADC1-M, ADC3-M or ADC SAR DM4 (each 6 mg/kg). Tumor length (L) and width (W) were measured with calipers and tumor volumes were calculated using L×W^2/2.

[9] = test system: human patient-derived CRC xenograft model REPF210; experiment: CRC PDX mouse model REPF210; assay type: in vivo; conditions: single i.v. treatment, 6 mg/kg
Description: as §1

[10] = test system: 12 other CRC PDX models with high CEACAM5 expression; experiment: Other CRC PDX models; assay type: in vivo, mouse; conditions: single treatment
Description: as §1, with “vivo has been” for “vivo was”, “xenograft model COPF217” for “xenograft models COPF230 and REPF210”, “LTD). COPF217 tumor” for “LTD). Tumor”

Molecule | EC50 [1] | Binding to FcγRI, FcγRIIa, FcγRIIIa, FcγRIIIa/complex, C1q, FcγRIIb and FcγRIIIb [2] | CEACAM5 detection in Western blot [3] | SNU-16 maximal effect compared to untreated controls [4] | MDA-MB-468 maximal effect compared to untreated controls ([5]; at the highest tested compound concentration) | IC50 ([5]; six days, geometric mean, N ≥ 2, CEACAM5 Negative) | safety profile [6] | tumors with complete tumor regression ([7]; 10 mg/kg) | anti-tumor effect ([7]; 3 or 10 mg/kg) | impact on body weight ([7]; 3 or 10 mg/kg) | anti-tumor effect [8] | anti-tumor effect [9] | anti-tumor effect [10]
B1 | 4.8 ± 0.6 nM | reduced or no binding | specific to CEACAM5-positive cell lines | – | – | – | – | – | – | – | – | – | –
B2 | – | – | – | (−91%) | (−85%) | > 10 nM | comparatively favorable safety profile | five of six tumors | significant anti-tumor effect | no impact on body weight | significant anti-tumor effect | significant anti-tumor effect | tumor stasis or tumor regression
